This is one part of the list.
T1: UNK ZnF1-3 (human, UniProt Q9C0B0 31-174)
T1 sequence: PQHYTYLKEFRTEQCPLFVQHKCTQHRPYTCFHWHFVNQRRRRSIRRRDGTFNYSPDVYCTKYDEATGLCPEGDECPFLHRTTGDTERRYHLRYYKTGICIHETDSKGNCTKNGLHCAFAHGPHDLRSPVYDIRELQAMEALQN

B1: chr5:28742860:28742861:+_ENSMUSG00000048271_ENSMUST00000114884|mus_mus|FALSE|FALSE (ssRNA)
RNA: GGGAGUUCUACAGUCCGACGAUCAGAAUCUCUUGAAAAAGAAAAGGUGAGAUUUCCUCCUCAAGAAGAGUAUCAAUAUAAUAAGGAUUUAACAAAUGUGGCCAAGCCAAGGGCAGCAUAAGGUUAUGUUCAGGUAAGCAGCUGCAACAGAGGAUUGAGCAUCA
B2: chr1:93988920:93988921:+_ENSG00000137942_ENST00000370253|hu_mus|motif|central (ssRNA)
RNA: GGGAGUUCUACAGUCCGACGAUCCAGAUCAUGGGCAUAUCUCAUUAAUUCACCAUAUACUCUGUGCGCCAUUUCUUCUGCGGCGGCCUCUCGCUGUCCUGCAUAGUCGUUUAACUCAUUAAGGAUGUUAAAAAAGGCGAUACACAACAGAGGAUUGAGCAUCA
B3: chr19:10058675:10058676:+_ENSMUSG00000024661_ENSMUST00000025563|mus_mus|FALSE|FALSE (ssRNA)
RNA: GGGAGUUCUACAGUCCGACGAUCUUGGUGGAGAAAGUAUUUGGCAAAGUUCUUCAGAGCCACAUCAUCUCGGUCAAAAUAACAAGACAUAGACAGAUAGACGUAGGAGGCAUACAACUCCAGGUUGAUCUGGCGGUUGAUGGCCAACAGAGGAUUGAGCAUCA
B4: chr18:90710673:90710674:+_ENSMUSG00000024614_ENSMUST00000025515|mus_hu|motif|central (ssRNA)
RNA: GGGAGUUCUACAGUCCGACGAUCGUUGCCUAAUAUAAAUUCUAAACUUAGCUAAAAUGAAGGCCUCAAAAAUAAUUUAUCGGCAAUAAACAUACCAAACUGUUACUUUAAAAAAAAGAGUUUUUAGACAUUGCUUUGGAAAGACAACAGAGGAUUGAGCAUCA
B5: chr4:45823916:45823917:-_ENSMUSG00000035551_ENSMUST00000044297|mus_mus|motif|central (ssRNA)
RNA: GGGAGUUCUACAGUCCGACGAUCGAUAGGGGUACAGGGACCCCCUCCCUUCAUAACACGCACCAAAUCAGAGCACCCACGGAGCAGUUACAGACACCAAGUCACGAGUCAGCUGGCCUGUGCCUUGUUUUGAGCCCUUUAGAACAACAGAGGAUUGAGCAUCA
B6: chr1:220276048:220276049:+_ENSG00000067704_ENST00000302637|hu_hu|hu_hu_hu_mus_True|28_48 (ssRNA)
RNA: GGGAGUUCUACAGUCCGACGAUCGCAAAUUGCCUGGUUGGCGGGAAUUGUCCAAGGCUGGGUGGUCCAAACUAAAACGCUAACAGGAGAUGAACCAUCUGUAAGAGAUGCCAAUUUCGGAGGAGGUCUCAGGAGGGGGAAUCUCAACAGAGGAUUGAGCAUCA
B7: chr20:33128396:33128397:+_ENSG00000125971_ENST00000357156|hu_mus|FALSE|FALSE (ssRNA)
RNA: GGGAGUUCUACAGUCCGACGAUCGACACAGGAAGCCCAGACAGUGGCUUAUUCAGUUGGAUUCUGGAUCACAAUCAGGAAAUAGUCUUUAUCUGGUGCCACCAUAAUUUCAUUUUUCUUGGAGCGAAUUCGAAGGAAGGUUAGCAACAGAGGAUUGAGCAUCA
B8: chr16:94664382:94664383:+_ENSMUSG00000040785_ENSMUST00000117648|mus_mus|motif|central (ssRNA)
RNA: GGGAGUUCUACAGUCCGACGAUCUCCUGGUAUGGACUUCACAUCCUCAGACAGUGCUUCAGACUUUACAUCUGGUUGAAAUUCCCGGGCAGUUGGAUUUAGUGGUAGUUUAACUCGUAAAUAUUCUCCUGUUUUUGAAAUGUCCAACAGAGGAUUGAGCAUCA
B9: chr19:16212804:16212805:+_ENSG00000167460_ENST00000300933|hu_mus|hu_hu_hu_mus_False|1_38 (ssRNA)
RNA: GGGAGUUCUACAGUCCGACGAUCAACAAUUCUGGAGUGAAGGAAAGAUGUAACAUGGAACAGCAUUAAAGCUCAGUCAGAAGGCACAUGGGCAACAAUGACUAUUUCAGCAUUCUCGCUUGGAAUGCUUAAAGACAGAUGUUUCAACAGAGGAUUGAGCAUCA
B10: 45022524_45023563_2369_3pUTR_ENSMUSG00000036097_ENSMUST00000096053|mouse|control|control (ssRNA)
RNA: GGGAGUUCUACAGUCCGACGAUCUGAUUGAAAAUUUUUCCAGAAUUGAGGAAAUUAAAUAUUUCUUCACCUGGAUGAUGAUCAGGAAUAGCAUCAACUGUAACUGAAAAUUUCUUUAGAAAUUCCCUGUGUUCUUCCAAGAGGCAACAGAGGAUUGAGCAUCA
B11: chr5:89070800:89070801:+_ENSMUSG00000029291_ENSMUST00000031229|mus_hu|FALSE|FALSE (ssRNA)
RNA: GGGAGUUCUACAGUCCGACGAUCUGAAGGAAUGAAGGCUUAUGUAAAGCCUGUCUCUUCAAAUCAAAAAUCAUCUUAAAAAAUCAAACUGUUUAUAGGAUUAUUUACAAUGUUAAAGCCUAGAAAGGGUUAGUCUGUGGUCACCAACAGAGGAUUGAGCAUCA
B12: 101967460_101969148_417_5pUTR_ENSG00000158301_ENST00000332262|human|control|control (ssRNA)
RNA: GGGAGUUCUACAGUCCGACGAUCGUGUCAAGCCCCACAGCUGACAGAAGGGGGUCCUCCAGAGCUGUGAGCCAGUCUCCUCCUCCUUGCCUUUCUUGCAGAAUUGGCCAGCCUUAAAGUAGGCCUUCAGAGGCCCAGGGCCCACAACAGAGGAUUGAGCAUCA
B13: chr2:32526493:32526494:+_ENSG00000119820_ENST00000437765|hu_hu|FALSE|FALSE (ssRNA)
RNA: GGGAGUUCUACAGUCCGACGAUCGAUCCAACCACCAAAAGUACAGGGGCUAUUACAAUGAGAGGAAGUAAUGAAUAUCCUAUAACUCCAAGGACUUGGCCAUAUGCAACUUCUCCACCAAGAACUCUGGCCAGUAAGAAAAUUCAACAGAGGAUUGAGCAUCA
B14: chr4:140556289:140556290:+_ENSMUSG00000036622_ENSMUST00000037055|mus_mus|mus_mus_mus_hu_False|8_38 (ssRNA)
RNA: GGGAGUUCUACAGUCCGACGAUCGAUGGAGCUCACCAGGCCCCCUUUUGCCGUGCAGAACCCUGUGCGGGUCACCACUGCCAGGACGUGCGGUCCCACGUAGGCUCGGGCCUGCAAGAUGAGGGUCCCACAGAAGAGUGUGUGCAACAGAGGAUUGAGCAUCA
B15: chr2:216986912:216986913:+_ENSG00000079246_ENST00000392132|hu_hu|motif|central (ssRNA)
RNA: GGGAGUUCUACAGUCCGACGAUCCAGUUUUCUCAGACUCUCACUGAAUGAAUAAAUUUCAUCCAACCCAUCUUCACCUUCGGAAGAUAUCAUCACCAUUUUCACUAUCUCAAGACCUUCUUUUUGCUGUUCGGUAAUUCCUUUCAACAGAGGAUUGAGCAUCA
B16: chr12:16048344:16048345:+_ENSG00000023734_ENST00000419869|hu_hu|hu_hu_hu_mus_True|1_78 (ssRNA)
RNA: GGGAGUUCUACAGUCCGACGAUCAGAUCGUCCAUAAGUAAUAACCAAAAUCUCUCCCUCAGGAAUAUACUCCAUGCUGCUAACAGACAUAUUAAAAUUCAGAGAUUUCACUUCUGUCAUUGUGGCAUGAUCCCAGAGUCGAACCAACAGAGGAUUGAGCAUCA
B17: 53430807_53432045_2282_CDS_ENSG00000072501_ENST00000322213|human|control|control (ssRNA)
RNA: GGGAGUUCUACAGUCCGACGAUCCUCCAGCUUGGAUUUUUCCUGCAGAUUCAGGGCUAGAUGUCGUGUCUUGGUCUGUUCUAGGUCACUCUGGGAGUACUUGAGCCGCAUCUGCAGUCCAUGGGCCUGAGACUGCACCUGACGCAACAGAGGAUUGAGCAUCA
B18: chr8:95500983:95500984:-_ENSG00000164944_ENST00000437199|hu_hu|hu_hu_hu_mus_True|18_108 (ssRNA)
RNA: GGGAGUUCUACAGUCCGACGAUCAGAAGGAUUUUUACGAGUAAAGGACCGUACAUGACGGCCUCUACCACUGCCUCCACUAACAAACUUUCCUCUCGAGCCUCCACUGCCGCUAUUUUGCACUAGCCAGGACGGUCCCAGGCCCAACAGAGGAUUGAGCAUCA
B19: chr1:58468927:58468928:-_ENSMUSG00000026034_ENSMUST00000148330|mus_mus|mus_mus_mus_hu_False|8_98 (ssRNA)
RNA: GGGAGUUCUACAGUCCGACGAUCAAUUACUGAAAAAUGAAAGAUGUACCUUAGCUAUGUACUUAAUGAACCAAAUUACCCAAACAAAAUAAACAUGGCAAUAUAAAAAUGUUAAGAAUUUACAAAGAUUAAAAGCUUAACUUACAACAGAGGAUUGAGCAUCA
B20: chr11:97543600:97543601:+_ENSMUSG00000038437_ENSMUST00000044730|mus_mus|FALSE|FALSE (ssRNA)
RNA: GGGAGUUCUACAGUCCGACGAUCUUGGCUGCCCCAGGUCCAGAGGAAGAAAUGACAGAUAGACAGACAGGUUAAACAGACUAACCAUCUCUCUCUUUUUCUCUCACUCACACACACACUCACACACUCACAAUCUGUGGAGUCCAACAGAGGAUUGAGCAUCA
B21: chr2:90749655:90749656:+_ENSMUSG00000005505_ENSMUST00000090682|mus_mus|FALSE|FALSE (ssRNA)
RNA: GGGAGUUCUACAGUCCGACGAUCCACGUGGCACUUGUCAGUUUCUGUGUCAAAGCACUGGAUCAGUCGGGAAGGUUUGGUAAAGAAGUCUAGAUCAUUCUCCUCACCCCCCAGUAAGUAGAUGAUUCCAUUCAGGUUGGCACCCAACAGAGGAUUGAGCAUCA
B22: chr6:44221449:44221450:+_ENSG00000096384_ENST00000371646|hu_hu|FALSE|FALSE (ssRNA)
RNA: GGGAGUUCUACAGUCCGACGAUCAAUGGGGCUUGACACCCUUAGUUUACUGCCUUCAACACAAGGACAGGAGAGGGAAAAAAACACUAGACACCAGCAGGGGGAGCCAGGUGGGACAGGGGCACUCGAGGCUGCAGUGGGAGCCAACAGAGGAUUGAGCAUCA

The binders below were run against T1, UNK ZnF1-3 (assay: nsRBNS (natural sequence RNA bind-n-seq); RBNS binding buffer (assumed for nsRBNS): 25 mM Tris pH 7.5, 150 mM KCl, 3 mM MgCl2, 0.01% Triton X-100, 500 ug/ml BSA, 20 U/ml SUPERase-In, 4 C; UNK is unkempt and MSI1 is Musashi-1; names of the RNAs are library labels; protein concentration not given here; high values mean tight binding).
Work on B1 yielded a binding signal of 1.72 enrichment R. B2 gave a binding signal of 0.873 enrichment R. Work on B3 yielded a binding signal of 1.44 enrichment R. For B4, the binding signal was 1.55 enrichment R. With B5 the binding signal was 1.17 enrichment R. For B6, the binding signal was 2.07 enrichment R. Work on B7 yielded a binding signal of 1.14 enrichment R. B8 gave a binding signal of 0.66 enrichment R. With B9 the binding signal was 1.23 enrichment R. B10 showed a binding signal of 1.47 enrichment R. B11 gave a binding signal of 0.865 enrichment R. B12 gave a binding signal of 0.914 enrichment R. Binder B13 has a binding signal of 1.74 enrichment R. B14 showed a binding signal of 1.15 enrichment R. With B15 the binding signal was 0.792 enrichment R. With B16 the binding signal was 1.1 enrichment R. Work on B17 yielded a binding signal of 0.654 enrichment R. B18 gave a binding signal of 1.15 enrichment R. Work on B19 yielded a binding signal of 1.87 enrichment R. With B20 the binding signal was 1.48 enrichment R. In the case of B21, the binding signal is reported as 1.02 enrichment R. For B22, the binding signal was 1.99 enrichment R.
